Source: the supplement of paper PMC10724272
MIC of invasive clinical C. tropicalis isolates, CLSI broth microdilution (fluconazole 0.12-256 mg/L, up to 1,024 for the azole-resistant cluster and its neighbour group; other ranges not stated); higher = less susceptible. Call: susceptible or wild type [S] / resistant or non-wild type [R] by CLSI breakpoints or cut-offs; intermediate and dose-dependent carry no call. '<=' and '>=' at the end values are inferred; the source marks only some of them. Isolates are numbered anew.

Key:
Experiment in all cases: CLSI broth microdilution.
[1] = compound: CCC(C)n1ncn(-c2ccc(N3CCN(c4ccc(OCC5COC(Cn6cncn6)(c6ccc(Cl)cc6Cl)O5)cc4)CC3)cc2)c1=O [itraconazole]
[2] = compound: CCCCCOc1ccc(-c2cc(-c3ccc(C(=O)N[C@H]4C[C@@H](O)[C@@H](O)NC(=O)[C@@H]5[C@@H](O)[C@@H](C)CN5C(=O)[C@H]([C@H](O)CC(N)=O)NC(=O)[C@H]([C@H](O)[C@@H](O)c5ccc(O)c(OS(=O)(=O)O)c5)NC(=O)[C@@H]5C[C@@H](O)CN5C(=O)[C@H]([C@@H](C)O)NC4=O)cc3)no2)cc1 [micafungin]
[3] = compound: CCCCCOc1ccc(-c2ccc(-c3ccc(C(=O)N[C@H]4C[C@@H](O)[C@@H](O)NC(=O)[C@@H]5[C@@H](O)[C@@H](C)CN5C(=O)[C@H]([C@@H](C)O)NC(=O)[C@H]([C@H](O)[C@@H](O)c5ccc(O)cc5)NC(=O)[C@@H]5C[C@@H](O)CN5C(=O)[C@H]([C@@H](C)O)NC4=O)cc3)cc2)cc1 [anidulafungin]
[4] = compound: CC[C@@H]([C@H](C)O)n1ncn(-c2ccc(N3CCN(c4ccc(OC[C@@H]5CO[C@@](Cn6cncn6)(c6ccc(F)cc6F)C5)cc4)CC3)cc2)c1=O [posaconazole]
[5] = compound: CC[C@H](C)C[C@H](C)CCCCCCCCC(=O)N[C@H]1C[C@@H](O)[C@@H](NCCN)NC(=O)[C@@H]2[C@@H](O)CCN2C(=O)[C@H]([C@H](O)CCN)NC(=O)[C@H]([C@H](O)[C@@H](O)c2ccc(O)cc2)NC(=O)[C@@H]2C[C@@H](O)CN2C(=O)[C@H]([C@@H](C)O)NC1=O [caspofungin]
[6] = compound: C[C@@H](c1ncncc1F)[C@](O)(Cn1cncn1)c1ccc(F)cc1F [voriconazole]
[7] = compound: C[C@@H]1[C@H](O)[C@@H](C)/C=C/C=C/C=C/C=C/C=C/C=C/C=C/[C@H](O[C@@H]2O[C@H](C)[C@@H](O)[C@H](N)[C@@H]2O)C[C@@H]2O[C@](O)(C[C@@H](O)C[C@@H](O)[C@H](O)CC[C@@H](O)C[C@@H](O)CC(=O)O[C@H]1C)C[C@H](O)[C@H]2C(=O)O [amphotericin B]
[8] = compound: Nc1[nH]c(=O)ncc1F [flucytosine]
[9] = compound: OC(Cn1cncn1)(Cn1cncn1)c1ccc(F)cc1F [fluconazole]

Test System	MIC [1]	MIC [2]	MIC [3]	MIC [4]	MIC [5]	MIC [6]	MIC [7]	MIC [8]	MIC [9]
Candida tropicalis isolate 1 (ERG11 copies: 2, Erg11p: no key change)	0.25 mg/L [S]	0.06 mg/L [S]	0.12 mg/L [S]	0.25 mg/L [S]	0.12 mg/L [S]	0.12 mg/L [S]	0.5 mg/L [S]	≤ 0.06 mg/L [S]	2 mg/L [S]
Candida tropicalis isolate 2 (ERG11 copies: 6, Erg11p: Y132F, S154F (homozygous))	1 mg/L [R]	0.03 mg/L [S]	0.06 mg/L [S]	1 mg/L [R]	0.03 mg/L [S]	≥ 8 mg/L [R]	1 mg/L [S]	≤ 0.06 mg/L [S]	256 mg/L [R]
Candida tropicalis isolate 3 (ERG11 copies: 7, Erg11p: Y132F, S154F (heterozygous))	1 mg/L [R]	0.03 mg/L [S]	0.03 mg/L [S]	1 mg/L [R]	0.03 mg/L [S]	≥ 8 mg/L [R]	1 mg/L [S]	≤ 0.06 mg/L [S]	512 mg/L [R]
Candida tropicalis isolate 4 (ERG11 copies: 2, Erg11p: no key change)	0.12 mg/L [S]	0.03 mg/L [S]	0.06 mg/L [S]	0.12 mg/L [S]	0.03 mg/L [S]	0.12 mg/L [S]	1 mg/L [S]	≤ 0.06 mg/L [S]	2 mg/L [S]
Candida tropicalis isolate 5 (ERG11 copies: 6, Erg11p: Y132F, S154F (heterozygous))	0.5 mg/L [S]	0.03 mg/L [S]	≤ 0.015 mg/L [S]	0.5 mg/L [R]	0.03 mg/L [S]	> 8 mg/L [R]	0.12 mg/L [S]	≤ 0.06 mg/L [S]	512 mg/L [R]
Candida tropicalis isolate 6 (ERG11 copies: 2, Erg11p: no key change)	0.12 mg/L [S]	0.03 mg/L [S]	0.06 mg/L [S]	0.12 mg/L [S]	0.06 mg/L [S]	0.06 mg/L [S]	1 mg/L [S]	≤ 0.06 mg/L [S]	1 mg/L [S]
Candida tropicalis isolate 7 (ERG11 copies: 2, Erg11p: no key change)	0.06 mg/L [S]	0.03 mg/L [S]	0.06 mg/L [S]	0.03 mg/L [S]	0.06 mg/L [S]	0.015 mg/L [S]	0.5 mg/L [S]	0.12 mg/L [S]	0.5 mg/L [S]
Candida tropicalis isolate 8 (ERG11 copies: 2, Erg11p: no key change)	0.5 mg/L [S]	0.03 mg/L [S]	0.06 mg/L [S]	0.5 mg/L [R]	0.06 mg/L [S]	0.25 µg/mL	1 mg/L [S]	≤ 0.06 mg/L [S]	2 mg/L [S]
Candida tropicalis isolate 9 (ERG11 copies: 2, Erg11p: no key change)	0.12 mg/L [S]	0.03 mg/L [S]	≤ 0.015 mg/L [S]	0.12 mg/L [S]	0.03 mg/L [S]	0.06 mg/L [S]	1 mg/L [S]	≤ 0.06 mg/L [S]	1 mg/L [S]
Candida tropicalis isolate 10 (ERG11 copies: 2, Erg11p: no key change)	0.25 mg/L [S]	0.03 mg/L [S]	0.03 mg/L [S]	0.25 mg/L [S]	0.03 mg/L [S]	0.12 mg/L [S]	1 mg/L [S]	0.12 mg/L [S]	2 mg/L [S]
Candida tropicalis isolate 11 (ERG11 copies: 2, Erg11p: no key change)	0.25 mg/L [S]	0.06 mg/L [S]	0.12 mg/L [S]	0.25 mg/L [S]	0.06 mg/L [S]	1 mg/L [R]	1 mg/L [S]	≤ 0.06 mg/L [S]	16 mg/L [R]
Candida tropicalis isolate 12 (ERG11 copies: 2, Erg11p: no key change)	0.12 mg/L [S]	0.06 mg/L [S]	0.12 mg/L [S]	0.12 mg/L [S]	0.06 mg/L [S]	0.06 mg/L [S]	1 mg/L [S]	0.12 mg/L [S]	1 mg/L [S]
Candida tropicalis isolate 13 (ERG11 copies: 2, Erg11p: no key change)	0.25 mg/L [S]	0.06 mg/L [S]	0.12 mg/L [S]	0.5 mg/L [R]	0.06 mg/L [S]	0.25 µg/mL	0.5 mg/L [S]	0.12 mg/L [S]	2 mg/L [S]
Candida tropicalis isolate 14 (ERG11 copies: 2, Erg11p: no key change)	0.12 mg/L [S]	0.03 mg/L [S]	0.06 mg/L [S]	0.06 mg/L [S]	0.25 mg/L [S]	0.03 mg/L [S]	1 mg/L [S]	≤ 0.06 mg/L [S]	4 µg/mL
Candida tropicalis isolate 15 (ERG11 copies: 2, Erg11p: no key change)	0.12 mg/L [S]	0.03 mg/L [S]	0.12 mg/L [S]	0.12 mg/L [S]	0.06 mg/L [S]	0.12 mg/L [S]	0.5 mg/L [S]	0.12 mg/L [S]	2 mg/L [S]
Candida tropicalis isolate 16 (ERG11 copies: 2, Erg11p: no key change)	0.25 mg/L [S]	0.03 mg/L [S]	0.06 mg/L [S]	0.25 mg/L [S]	0.06 mg/L [S]	0.12 mg/L [S]	1 mg/L [S]	≤ 0.06 mg/L [S]	1 mg/L [S]

Test System	MIC [1]	MIC [2]	MIC [3]	MIC [4]	MIC [5]	MIC [6]	MIC [7]	MIC [8]	MIC [9]
Candida tropicalis isolate 17 (ERG11 copies: 2, Erg11p: no key change)	0.25 mg/L [S]	0.03 mg/L [S]	0.12 mg/L [S]	0.25 mg/L [S]	0.03 mg/L [S]	0.12 mg/L [S]	0.5 mg/L [S]	≤ 0.06 mg/L [S]	1 mg/L [S]
Candida tropicalis isolate 18 (ERG11 copies: 9, Erg11p: Y132F, S154F (heterozygous))	1 mg/L [R]	0.03 mg/L [S]	0.03 mg/L [S]	2 mg/L [R]	0.03 mg/L [S]	≥ 8 mg/L [R]	2 mg/L [S]	≤ 0.06 mg/L [S]	512 mg/L [R]
Candida tropicalis isolate 19 (ERG11 copies: 8, Erg11p: Y132F, S154F (homozygous))	1 mg/L [R]	0.06 mg/L [S]	0.12 mg/L [S]	1 mg/L [R]	0.06 mg/L [S]	≥ 8 mg/L [R]	1 mg/L [S]	≤ 0.06 mg/L [S]	512 mg/L [R]
Candida tropicalis isolate 20 (ERG11 copies: 8, Erg11p: Y132F, S154F (heterozygous))	0.25 mg/L [S]	0.03 mg/L [S]	0.06 mg/L [S]	0.25 mg/L [S]	0.06 mg/L [S]	0.25 µg/mL	1 mg/L [S]	≤ 0.06 mg/L [S]	4 µg/mL
Candida tropicalis isolate 21 (ERG11 copies: 2, Erg11p: G464S (homozygous))	1 mg/L [R]	0.03 mg/L [S]	0.03 mg/L [S]	1 mg/L [R]	0.06 mg/L [S]	4 mg/L [R]	0.5 mg/L [S]	≤ 0.06 mg/L [S]	> 256 mg/L [R]
Candida tropicalis isolate 22 (ERG11 copies: 2, Erg11p: no key change)	0.25 mg/L [S]	0.015 mg/L [S]	0.12 mg/L [S]	0.25 mg/L [S]	0.03 mg/L [S]	0.25 µg/mL	0.5 mg/L [S]	≤ 0.06 mg/L [S]	4 µg/mL
Candida tropicalis isolate 23 (ERG11 copies: 2, Erg11p: no key change)	0.25 mg/L [S]	0.03 mg/L [S]	0.25 mg/L [S]	0.25 mg/L [S]	0.06 mg/L [S]	0.25 µg/mL	1 mg/L [S]	≤ 0.06 mg/L [S]	1 mg/L [S]
Candida tropicalis isolate 24 (ERG11 copies: 2, Erg11p: Y132F, S154F (homozygous))	0.5 mg/L [S]	0.03 mg/L [S]	0.25 mg/L [S]	0.5 mg/L [R]	0.25 mg/L [S]	> 8 mg/L [R]	1 mg/L [S]	0.25 mg/L [S]	> 256 mg/L [R]
Candida tropicalis isolate 25 (ERG11 copies: 2, Erg11p: no key change)	0.12 mg/L [S]	0.03 mg/L [S]	0.12 mg/L [S]	0.06 mg/L [S]	0.06 mg/L [S]	0.06 mg/L [S]	1 mg/L [S]	≤ 0.06 mg/L [S]	1 mg/L [S]
Candida tropicalis isolate 26 (ERG11 copies: 2, Erg11p: no key change)	0.06 mg/L [S]	0.015 mg/L [S]	0.03 mg/L [S]	0.03 mg/L [S]	0.06 mg/L [S]	0.015 mg/L [S]	0.5 mg/L [S]	≤ 0.06 mg/L [S]	0.25 mg/L [S]
Candida tropicalis isolate 27 (ERG11 copies: 2, Erg11p: no key change)	≥ 16 mg/L [R]	0.03 mg/L [S]	0.12 mg/L [S]	≥ 8 mg/L [R]	0.03 mg/L [S]	2 mg/L [R]	0.5 mg/L [S]	≤ 0.06 mg/L [S]	128 mg/L [R]
Candida tropicalis isolate 28 (ERG11 copies: 2, Erg11p: no key change)	0.25 mg/L [S]	0.015 mg/L [S]	≤ 0.015 mg/L [S]	0.25 mg/L [S]	0.03 mg/L [S]	0.12 mg/L [S]	0.5 mg/L [S]	≤ 0.06 mg/L [S]	2 mg/L [S]
Candida tropicalis isolate 29 (ERG11 copies: 2, Erg11p: no key change)	0.5 mg/L [S]	0.015 mg/L [S]	0.03 mg/L [S]	0.5 mg/L [R]	0.03 mg/L [S]	0.25 µg/mL	1 mg/L [S]	≤ 0.06 mg/L [S]	2 mg/L [S]
Candida tropicalis isolate 30 (ERG11 copies: 2, Erg11p: no key change)	0.06 mg/L [S]	0.03 mg/L [S]	≤ 0.015 mg/L [S]	0.06 mg/L [S]	0.015 mg/L [S]	0.06 mg/L [S]	1 mg/L [S]	≤ 0.06 mg/L [S]	1 mg/L [S]
Candida tropicalis isolate 31 (ERG11 copies: 2, Erg11p: no key change)	0.25 mg/L [S]	0.06 mg/L [S]	0.12 mg/L [S]	0.25 mg/L [S]	0.06 mg/L [S]	0.25 µg/mL	0.5 mg/L [S]	0.12 mg/L [S]	2 mg/L [S]
Candida tropicalis isolate 32 (ERG11 copies: 6, Erg11p: Y132F, S154F (heterozygous))	0.5 mg/L [S]	0.03 mg/L [S]	0.25 mg/L [S]	0.5 mg/L [R]	0.03 mg/L [S]	≥ 8 mg/L [R]	1 mg/L [S]	≤ 0.06 mg/L [S]	256 mg/L [R]
